# The other results are listed elsewhere or left out.
# Target: T1, OsWOX13 (Oryza sativa, UniProt Q5QMM3 1-267)
# T1 sequence: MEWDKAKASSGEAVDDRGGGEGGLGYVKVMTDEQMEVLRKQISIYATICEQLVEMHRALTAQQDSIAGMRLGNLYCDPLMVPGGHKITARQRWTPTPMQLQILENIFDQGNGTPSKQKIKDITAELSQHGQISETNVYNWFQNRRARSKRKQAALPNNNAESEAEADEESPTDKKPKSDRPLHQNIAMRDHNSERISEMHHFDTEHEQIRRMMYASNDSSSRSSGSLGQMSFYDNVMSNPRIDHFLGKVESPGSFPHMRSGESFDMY
# Experiment: protein-binding microarray (RPBM); PBS, 2% BSA, 51.3 ng/ul salmon testes DNA, 50 uM zinc acetate, 200 nM TF, 25 C, 1 h; high values mean tight binding
# Conditions: protein: recombinant; tags: N-terminal polyhistidine and DsRed monomer fusion (pET32a); label: CyDye5-dUTP incorporated in the synthesized complementary strand; 3' TTTTT single-stranded linker to array surface; dsDNA, one strand shown
# Method in brief: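 The binding signal for each feature is its fluorescence intensity in arbitrary units. An Axon 4000B scanner was used to read a custom Agilent array that had been made double-stranded with Cy5-dUTP primer extension, blocked with 2% BSA, incubated at 25 °C for 1 h with 200 nM protein in PBS, 2% BSA, salmon testes DNA and 50 µM zinc acetate, and washed. The protein was an N-terminal polyhistidine–DsRed transcription factor fusion from E. coli BL21-CodonPlus, purified on Ni–NTA.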
row,Sequence,binding signal
1,GTATAATAATTTCAAGGATGAAATTTCTAAAGGAGGGAAGCGGAGTCACCTAGTGCAG,7880 fluorescence intensity (a.u.)
2,ATAATACCAGTATTTGTAATTAATTGCAACTCAAAGTCTTCGGAGTCACCTAGTGCAG,8890 fluorescence intensity (a.u.)
3,CACCCAATTAGTTAAACACAGCCATGCGGGACCCACCTCCCGGAGTCACCTAGTGCAG,8850 fluorescence intensity (a.u.)
4,TCTAATAATTTTCCCGTTCTGGATCCTAAGGAGCACAAGGCGGAGTCACCTAGTGCAG,4400 fluorescence intensity (a.u.)
5,CTGATGATGGGCCCTTAAACTTCAATTTAAAGCAAAATGACGGAGTCACCTAGTGCAG,6640 fluorescence intensity (a.u.)
6,AGATTCAATAATAAATCTTATTGAATGGTGATGTAACTTGCGGAGTCACCTAGTGCAG,6350 fluorescence intensity (a.u.)
7,TGCAATTGAAGATAGATTAAAACTAGTACGGGTCAACGGACGGAGTCACCTAGTGCAG,19500 fluorescence intensity (a.u.)
8,TAAGAATGATTGCAGACCCACAATCTTGCACCAACATATGCGGAGTCACCTAGTGCAG,20300 fluorescence intensity (a.u.)
9,ATACAAATCAGAAATATACAGATTTTAGGCCATTGTTCACCGGAGTCACCTAGTGCAG,11300 fluorescence intensity (a.u.)
10,CTTTGACAGACAGATATCCATTCATACGTGCACAGGCGACCGGAGTCACCTAGTGCAG,55300 fluorescence intensity (a.u.)
11,GCACGCTAATTGTTGGTGTACATGGCTCTGTATGCTTACTCGGAGTCACCTAGTGCAG,12200 fluorescence intensity (a.u.)
12,AAGAAAATAGATAGATATGAACTTTGATGTGGAGTTTTCACGGAGTCACCTAGTGCAG,4600 fluorescence intensity (a.u.)
13,AGTGAAATTACGAGGAAACATACCATGTTCTACGAGAAGGCGGAGTCACCTAGTGCAG,4290 fluorescence intensity (a.u.)
14,AAACTAATAGGTAAATATATATATTAGTATCTATTTACACCGGAGTCACCTAGTGCAG,12400 fluorescence intensity (a.u.)
15,GCTGCTCGGATTTGATTGATTGATTGATTGGCGGGTGGTCCGGAGTCACCTAGTGCAG,64500 fluorescence intensity (a.u.)
16,AGAATAATTTATATTATGAAACGGAGGGAGTAGTAGTTTACGGAGTCACCTAGTGCAG,6710 fluorescence intensity (a.u.)
17,ACGTGGCTAATTTAACTATGTCTTCATCTGACGTAGCATTCGGAGTCACCTAGTGCAG,10900 fluorescence intensity (a.u.)
18,TGATTTGATTAGTATTAATCTTTCTGAAAAGAACAATAAACGGAGTCACCTAGTGCAG,11100 fluorescence intensity (a.u.)
19,ACTCAAATTTACAGTGTATTTTCTTGTAAGTTACAGTGTACGGAGTCACCTAGTGCAG,5550 fluorescence intensity (a.u.)
20,AAAGAACCAATTGATTGAGCTGGGGCAGTAGCAGTCGTACCGGAGTCACCTAGTGCAG,26400 fluorescence intensity (a.u.)
21,ACTGACTTGGGACCTAAATTAGACGGTTTTGTATAGTTTACGGAGTCACCTAGTGCAG,3180 fluorescence intensity (a.u.)
22,TTCAAAATTACGGAAACTTACATATAAGTTACACTGTAGTCGGAGTCACCTAGTGCAG,3200 fluorescence intensity (a.u.)
23,TTACTAATGGATAATAATCTCTCTCTCTCTCTCTCTCTCTCGGAGTCACCTAGTGCAG,10300 fluorescence intensity (a.u.)

# — PMC7819943, “Rice protein-binding microarrays: a tool to detect cis-acting elements near promoter regions in rice”
